Measured values as given in patent publication EP0739343B1, “WATER SOLUBLE ONIUM SALT OF TAXO-DITERPENOID” (THE SCRIPPS RESEARCH INSTITUTE, priority 1994, dated 1995).

Test system: cell line panel including leukemia, ovarian, lung, and breast carcinoma cells
Assay: Cytotoxicity against a cell line panel, XTT assay
Conditions: 72 hours

| SMILES | IC50 values (range over the cell line panel) |
| --- | --- |
| CC(=O)O[C@H]1C(=O)[C@@]2(C)[C@H]([C@H](OC(=O)c3ccccc3)[C@]3(O)C[C@H](OC(=O)[C@H](Oc4cccc[n+]4C)[C@@H](NC(=O)c4ccccc4)c4ccccc4)C(C)=C1C3(C)C)[C@]1(OC(C)=O)CO[C@@H]1C[C@@H]2O [compound 2, Taxol-2'-MPT] | 10^-5 to 10^-12 M |
| CC(=O)O[C@H]1C(=O)[C@@]2(C)[C@H]([C@H](OC(=O)c3ccccc3)[C@]3(O)C[C@H](OC(=O)[C@H](O)[C@@H](NC(=O)c4ccccc4)c4ccccc4)C(C)=C1C3(C)C)[C@]1(OC(C)=O)CO[C@@H]1C[C@@H]2O [taxol, Taxol, reference compound] | 10^-5 to 10^-12 M |
